Experimental data reported in the supplement of paper PMC6089552.
In all, about 3,200 compounds went through this assay and about 300 (9.4%) showed activity. Only a part is listed here, and it is no random draw.

Tested on: A673/TR/shEF
Experiment: cell viability (LOESS-normalised, relative to median of negative controls) (log2 ratio); higher = more viable cells (less compound effect), active = hit call of the paper (over 3 MAD below the median)
Settings: treatment time: 72 h
In short: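 A673/TR/shEF Ewing sarcoma cells (1,500 per well, 384-well plates) were grown with or without doxycycline to induce EWS-FLI1 shRNA knockdown, starting 24 h before compounds. Library compounds at two or more concentrations, with DMSO controls, were added for three days. Cell viability was read by CellTiter-Glo luminescence on an Envision reader, then LOESS-corrected per plate, divided by the median of negative controls and log2-transformed. Hits were wells at least three median absolute deviations from the median of all screened wells.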

[1] = 0.25 µM, library screen: screen2, EWS-FLI1 expression: high (no doxycycline)
[2] = 0.25 µM, library screen: screen2, EWS-FLI1 expression: low (doxycycline-induced shRNA knockdown)
[3] = 2.5 µM, library screen: screen2, EWS-FLI1 expression: high (no doxycycline)
[4] = 2.5 µM, library screen: screen2, EWS-FLI1 expression: low (doxycycline-induced shRNA knockdown)
[5] = 0.25 µM, library screen: screen1, EWS-FLI1 expression: high (no doxycycline)
[6] = 0.25 µM, library screen: screen1, EWS-FLI1 expression: low (doxycycline-induced shRNA knockdown)
[7] = 2.5 µM, library screen: screen1, EWS-FLI1 expression: high (no doxycycline)
[8] = 2.5 µM, library screen: screen1, EWS-FLI1 expression: low (doxycycline-induced shRNA knockdown)
[9] = 0.103 µM, library screen: screen3, EWS-FLI1 expression: high (no doxycycline)
[10] = 0.103 µM, library screen: screen3, EWS-FLI1 expression: low (doxycycline-induced shRNA knockdown)
[11] = 0.308 µM, library screen: screen3, EWS-FLI1 expression: high (no doxycycline)
[12] = 0.308 µM, library screen: screen3, EWS-FLI1 expression: low (doxycycline-induced shRNA knockdown)
[13] = 0.926 µM, library screen: screen3, EWS-FLI1 expression: high (no doxycycline)
[14] = 0.926 µM, library screen: screen3, EWS-FLI1 expression: low (doxycycline-induced shRNA knockdown)
[15] = 2.8 µM, library screen: screen3, EWS-FLI1 expression: high (no doxycycline)
[16] = 2.8 µM, library screen: screen3, EWS-FLI1 expression: low (doxycycline-induced shRNA knockdown)
[17] = 8.3 µM, library screen: screen3, EWS-FLI1 expression: high (no doxycycline)
[18] = 8.3 µM, library screen: screen3, EWS-FLI1 expression: low (doxycycline-induced shRNA knockdown)
[19] = 25 µM, library screen: screen3, EWS-FLI1 expression: high (no doxycycline)
[20] = 25 µM, library screen: screen3, EWS-FLI1 expression: low (doxycycline-induced shRNA knockdown)

Measured: cell viability (log2)

CCCCC/C=C\C/C=C\C/C=C\C/C=C\CCCC(=O)NCC(=O)O
inactive: [1] 0.154 | [2] 0.137 | [3] 0.147 | [4] 0.135

CCCC(C)(COC(N)=O)COC(=O)NC(C)C (configuration not stated)
active: [3] -0.0715

CCCC1CCCCN1 (configuration not stated)
inactive: [5] 0.115 | [6] 0.153 | [7] 0.172 | [8] 0.128

C/C(O)=C(\C#N)C(=O)Nc1cc(Br)ccc1Br
inactive: 0.025 µM, library screen: screen1, EWS-FLI1 expression: high (no doxycycline) 0.198 | 0.025 µM, library screen: screen1, EWS-FLI1 expression: low (doxycycline-induced shRNA knockdown) -0.0693 | [5] 0.124 | [6] -0.0251 | [1] 0.133 | [2] 0.0965 | [8] -0.0427 | [3] 0.0403 | [4] 0.0594 | 25 µM, library screen: screen1, EWS-FLI1 expression: low (doxycycline-induced shRNA knockdown) -0.00927
active: [7] -0.396 | 25 µM, library screen: screen1, EWS-FLI1 expression: high (no doxycycline) -0.451

CNC(=O)Oc1cccc2c1OC(C)(C)C2
inactive: [5] 0.0513 | [6] 0.0685 | [7] 0.07 | [8] 0.106

CN1C2CCC1CC(OC(c1ccccc1)c1ccc(Cl)cc1)C2 (configuration not stated)
inactive: [1] 0.142 | [2] 0.124 | [3] 0.232 | [4] 0.111

CCCn1c(=O)c2[nH]c(C3CCCC3)nc2n(CCCOC(=O)c2ccc(S(=O)(=O)F)cc2)c1=O
inactive: [1] 0.208 | [2] 0.0412 | [3] 0.0267 | [4] 0.108

CC(O)(CS(=O)(=O)c1ccc(F)cc1)C(=O)Nc1ccc(C#N)c(C(F)(F)F)c1 (configuration not stated)
inactive: [9] 0.0986 | [10] 0.0273 | [11] 0.0782 | [12] 0.0674 | [13] 0.0286 | [14] 0.0826 | [15] 0.208 | [16] 0.095 | [17] 0.117 | [18] 0.0788 | [19] 0.134 | [20] 0.0817

CC[C@@H](C(=O)[C@@H](C)[C@@H](O)[C@H](C)[C@@H]1O[C@@H]([C@@H](CC)C(=O)O)CC[C@@H]1C)[C@H]1OC2(C=C[C@@H](O)[C@]3(CC[C@@](C)([C@H]4CC[C@](O)(CC)[C@H](C)O4)O3)O2)[C@H](C)C[C@@H]1C (some centres not stated)
active: [5] -0.101 | [7] -0.582

CC(C)Oc1cccnc1N(C)C1CCN(Cc2ccccc2)CC1
inactive: [1] 0.0907 | [2] 0.132 | [3] 0.175 | [4] 0.0196

O=[N+]([O-])O[C@H]1CO[C@H]2[C@@H]1OC[C@H]2O[N+](=O)[O-]
inactive: [5] 0.143 | [6] 0.0742 | [7] 0.196 | [8] 0.0185

CC(N)C(O)c1ccccc1 (configuration not stated)
inactive: [5] 0.0409 | [6] 0.127 | [7] 0.109 | [8] 0.126

O=C(CCCN1CCC2(CC1)C(=O)NCN2c1ccccc1)c1ccc(F)cc1
inactive: [5] 0.0953 | [6] -0.0107 | [1] 0.158 | [2] 0.0826 | [7] 0.212 | [8] 0.0511 | [3] 0.208 | [4] 0.119

O=C(O)CF
inactive: [5] -0.0204 | [6] -0.0324 | [7] 0.103 | [8] 0.0882

CCC(=O)Nc1ccc(Cl)c(Cl)c1
inactive: [5] 0.114 | [6] -0.0209 | [7] 0.0655 | [8] 0.0703

CC[C@@H](C)C(=O)O[C@H]1[C@H](O)[C@H]2[C@@H](CN3C[C@@H](C)CC[C@H]3[C@@]2(C)O)[C@@H]2C[C@]34O[C@]5(O)[C@@H](OC(=O)[C@@](C)(O)CC)CC[C@@]3(C)[C@@H]5[C@@H](OC(C)=O)[C@@H](OC(C)=O)[C@H]4[C@@]21O
inactive: [5] -0.0817 | [6] -0.0114 | [7] 0.16 | [8] -0.013

NCC1(CC(=O)O)CCCCC1
inactive: [9] 0.00201 | [10] 0.022 | [1] 0.169 | [2] 0.00729 | [11] 0.0737 | [12] 0.0617 | [13] 0.0562 | [14] 0.072 | [3] 0.117 | [4] 0.0573 | [15] 0.041 | [16] 0.028 | [17] -0.0307 | [18] 0.0446 | [19] 0.00424 | [20] 0.0664

COc1cc2ccc(=O)oc2c2ccoc12
inactive: [5] 0.222 | [6] 0.132 | [7] 0.248 | [8] 0.164

O=c1cccc2n1C[C@@H]1CNC[C@H]2C1
inactive: [5] 0.0148 | [6] -0.00559 | [7] 0.016 | [8] 0.0651

NC(CCP(=O)(O)O)C(=O)O (configuration not stated)
inactive: [1] 0.115 | [2] 0.0812 | [3] 0.106 | [4] 0.13

C[N+]1(C)CCc2cc3c(cc2[C@H]1[C@@H]1OC(=O)c2c1ccc1c2OCO1)OCO3
inactive: [1] 0.123 | [2] 0.0886 | [3] 0.123 | [4] 0.104

CCC(C)C(=O)OC1CC2(C)C(c3ccoc3)OC(=O)CC23OC2(C)OC34C(OC(=O)C(C)C)C3(O)C(OC(=O)C5(C)OC5C)C5(C)CC3(O)C(C)(C5CC(=O)OC)C14O2 (configuration not stated)
inactive: [5] 0.108 | [6] -0.0058 | [7] 0.0939 | [8] 0.12

COc1ccc2c(c1O)-c1cccc3c1[C@@H](C2)N(C)CC3
inactive: [1] 0.106 | [2] 0.0821 | [3] 0.152 | [4] 0.0974

CC(=O)O[C@H]1CC[C@@]2(C)C(=CCC3C2CC[C@]2(C)C(=O)CCC32)C1 (some centres not stated)
inactive: [5] 0.0955 | [6] 0.0874 | [7] 0.042 | [8] 0.106

COc1cc2c(c(OC)c1OC)-c1ccc(O)c(=O)cc1C(NC(C)=O)CC2 (configuration not stated)
active: [7] -1.1 | [8] -0.493

O=c1[nH]oc2c1CCNC2
inactive: [5] 0.156 | [6] 0.0142 | [1] 0.166 | [2] 0.0432 | [7] 0.0605 | [8] 0.0304 | [3] 0.193 | [4] 0.0406

CC(C)(O)[C@@H]1[C@H]2OC(=O)[C@@H]1[C@]1(O)C[C@H]3O[C@]34C(=O)O[C@H]2[C@]14C
inactive: [6] 0.12 | [7] 0.239 | [8] 0.206
0.592: [5]
